Reference: ChEMBL document CHEMBL4888484, “Replenishing the malaria drug discovery pipeline: Screening and hit evaluation of the MMV Hit Generation Library 1 (HGL1) against asexual blood stage Plasmodium falciparum ,using a nano luciferase reporter read-out” (2022)
Among all 150,000 compounds or so, about 540 (0.36%) showed an effect of 50% or more. Some of the results follow.

Each compound was assayed on Plasmodium falciparum (assay: Primary screen in NF54 nanoGlo assay, in single point, at 2uM, 72h; a lower Z score goes with more inhibition). Conditions: timepoint 72 hour.
Assay type: functional, Erythrocyte

| Compound | % Inhibition [%] | Z score |
| --- | --- | --- |
| CCc1nc(C)c(C(=O)N2CCC[C@H]2c2nc3ccccc3s2)o1 | 1 | -0.11 |
| Cn1nnnc1N1CCCC2CN(CCC#N)CC21 (stereo not drawn) | 2 | -0.27 |
| Cc1ncc(-c2cnc(C3CC3)o2)cc1N | -4 | 0.8 |
| N#Cc1c(N)c(-c2ccccc2)c(F)c2ccccc12 | -4 | 0.57 |
| COCC(=O)N1CCN(S(=O)(=O)c2ccccc2)C[C@@H]1C(=O)N[C@H](Cc1cccnc1)C(=O)OC | 11 | -1.7 |
| CN(Cc1cnn(C)c1)C(=O)c1cn(C(c2ccccc2)c2ccccc2)nn1 | 3 | -0.34 |
| CCCCc1nc(COc2ccc3ncccc3c2)cs1 | 1 | -0.12 |
| COc1ccccc1S(=O)(=O)N1Cc2cncnc2C1 | -14 | 2.44 |
| Cc1ccc(Br)cc1NC(=O)CCNC(=O)c1ccc(-n2ccc(C(F)(F)F)n2)cc1 | -10 | 1.97 |
| CC(C)[C@H](C)N(C(=O)c1cc(-c2ccc(F)cc2)[nH]n1)C1CC1 | -7 | 0.83 |
| CN(C[C@@H](O)CNC(=O)OC(C)(C)C)C(=O)CCc1ccccn1 | -4 | 0.52 |
| CN1C(C(=O)N2CCOCC2)=CC(c2ccc3c(c2)OCO3)=NS1(=O)=O | -8 | 1.58 |
| Cc1cc(=O)n(CC(=O)NCc2ccccc2Br)c(N2CCOCC2)n1 | -19 | 1.65 |
| CCOc1ccc([C@@H]2CC(c3ccccc3Cl)=NN2C(=O)CN2CCOCC2)cc1 | 6 | -0.91 |
| CCCc1cc([C@@H]2CCCN2Cc2c[nH]nc2-c2cccs2)no1 | -6 | 0.75 |
| Cc1nc2cc(N(C)C(=O)C[C@@H]3C[C@H]3c3ccccc3)ccc2[nH]1 | 0 | 0.07 |
| Cc1noc(COC2CN(C(=O)Nc3c(C)cc(Cl)c4ccccc34)C2)n1 | -4 | 0.8 |
| COCc1nc(C(=O)OCc2nc(C)c(C)s2)cs1 | -5 | 0.98 |
| CCCC(C(=O)N1CCCCC1c1ncon1)C(C)C (stereo not drawn) | -2 | 0.23 |
| CN(Cc1ccno1)C(=O)c1ccc(CCC(C)(C)O)cc1 | -12 | 1.1 |
| CCn1c(N)c(C(=O)CN2CCCCCC2)c(=O)[nH]c1=O | -10 | 0.91 |

| Compound | % Inhibition [%] | Z score |
| --- | --- | --- |
| Cc1c(Cl)cccc1NC(=O)CCNC(=O)NC[C@H]1CCCO1 | 3 | -0.4 |
| Cc1nc(C2CCCC2)sc1C(=O)N1CC(=O)Nc2cccnc21 | 21 | -2.42 |
| CNC(=O)[C@@H]1C[C@@H](n2cc(C(C)(C)NC(=O)Nc3ccccc3C)nn2)CN1 | -12 | 1.7 |
| CC(C)c1noc([C@H](C)NC(=O)CCS(C)(=O)=O)n1 | -12 | 1.59 |
| C=C(C)COc1ccccc1C(=O)N1CCc2[nH]nc(C(C)C)c2C1 | -14 | 1.79 |
| FC1(F)CC(Nc2cc(NC3CC(F)(F)C3)n3ncnc3n2)C1 | -3 | 0.48 |
| COc1cc2c(cc1OC)CN(C(=O)CC(c1ccccc1)c1ccccc1)CC2 | -9 | 1.23 |
| C[n+]1ccc(-c2ncc(-c3ccccc3)o2)c2ccccc21 | 75 | -5.73 |
| Cc1ccccc1Cn1cnc2c1c(=O)n(C1CCCC1)c(=O)n2-c1ccc(C(C)C)cc1 | -14 | 1.28 |
| COc1ccc2c(c1)OCCN(c1ncccn1)C2 | 6 | -0.52 |
| O=C(CS(=O)(=O)c1ccccc1)N1CCOCC1 | -8 | 1.27 |
| CC1CCCC(C(=O)NCc2cccc(=O)[nH]2)C1 (stereo not drawn) | 22 | -2.51 |
| Fc1ccc(CCNc2cnccn2)cc1F | -14 | 2.19 |
| O=C(NCc1cccc(C(F)(F)F)c1F)[C@H]1CCOC1 | -11 | 0.98 |
| Cc1ccc(S(=O)(=O)n2ccc3cccnc32)cc1 | -15 | 2.83 |
| Cc1cnn(Cc2ccccc2Cl)c1NC(=O)c1cnc2ccccn12 | -8 | 1.09 |
| CCCc1nc(N(C)C[C@H]2CCN(C)C2(C)C)no1 | -10 | 1.41 |
| Cc1ccc(C)n1-c1ccc(Cl)c(C(=O)NC[C@H](C)N2CCCC2)c1 | -9 | 0.85 |
| CCCC(=O)N1CCN(c2cc(-n3ccc(C)n3)ncn2)CC1 | 1 | -0.09 |
| O=C(Nc1ccccc1C(=O)N1CCCCC1)C1CCN(S(=O)(=O)Cc2ccc(F)cc2)CC1 | 3 | -0.49 |
| O=C(c1ccccc1)c1c2ccccn2c2cccc[n+]12 | 7 | -0.76 |

| Compound | % Inhibition [%] | Z score |
| --- | --- | --- |
| O=C(NCCNC(=O)c1ccccc1Cl)N[C@@H]1COC2(CCCCC2)C1 | -15 | 1.4 |
| COc1ccc(C(=O)N2[C@H](C(=O)NCc3cccnc3)COC23CCN(C(=O)c2ccccc2C)CC3)cc1 | -5 | 0.8 |
| O=C([C@@H]1CCCO1)N1CCc2[nH]c3ccc(F)cc3c2C1 | -10 | 1.58 |
| Cn1cc(-c2cncc3c2CCCC3)cn1 | -15 | 1.72 |
| CCOC(OCC)c1cc(-c2ccncc2)[nH]n1 | -6 | 1.03 |
| O=S(=O)(NC[C@@H](c1cccc(Cl)c1)N1CCCC1)c1ccc2c(c1)OCO2 | -10 | 1.36 |
| Cc1nc(C2CCCN2S(=O)(=O)[C@H]2C[C@@H]2c2ccccc2)[nH]c1C (stereo partly drawn) | -1 | 0.2 |
| COc1ccccc1CCN1C[C@@H](C(=O)Nc2ccc3nc(C)[nH]c3c2)CC1=O | 1 | -0.14 |
| C[C@@]1(C(=O)NCc2ccc(C(=O)Nc3cccnc3)cc2)C=CCC1 | 0 | 0.08 |
| C[C@@H](Cc1ccco1)NC(=O)C1CCN(S(C)(=O)=O)CC1 | 12 | -2.22 |
| CC1CCC(C(=O)N2CCCC2c2ccc3c(c2)OCCCO3)C2C(=O)N(c3ccccc3)C(=O)C12 (stereo not drawn) | 0 | 0.04 |
| COc1cc(F)cc2sc(NC(=O)c3c(C)c(C)n[nH]c3=O)nc12 | -2 | 0.49 |
| Cc1ccc2c(Nc3cccc(Cl)c3C)c(C(=O)N3CCCC3)cnc2n1 | -3 | 0.5 |
| CCOc1ccc(Cl)cc1CN(C)C(=O)NCC1CCN(C(C)=O)CC1 | 5 | -0.92 |
| COC(c1ccc(Br)cc1)C(C)NC(=O)NCCF (stereo not drawn) | -5 | 0.85 |
| CC1(C)CCC[C@@H]1NCc1nccc(N)n1 | 35 | -4.48 |
| O=C(c1ccc2sccc2c1)N1CCN[C@@H]2CS(=O)(=O)C[C@@H]21 | -16 | 2.77 |
| NCCOc1cccc(C(=O)NCC2=CCCCC2)c1 | -6 | 0.99 |
| Cn1c(=O)[nH]cc(CC(=O)NCc2ccc3sccc3c2)c1=O | -9 | 1.41 |
| CC(C)(C)c1nc(C(=O)N2CCO[C@H](c3nccs3)C2)cs1 | -2 | 0.28 |
| COc1ccc(CCC(=O)Nc2cc(-c3cccnc3)no2)cc1 | -32 | 3.11 |

| Compound | % Inhibition [%] | Z score |
| --- | --- | --- |
| C#CCNC(=O)c1ccc(=O)n(Cc2c(C)nc3ccccn23)c1 | -29 | 2.89 |
| CCOc1ccc(CCNC(=O)c2nn(-c3ccc(F)cc3)c(=O)n(C)c2=O)cc1OCC | -18 | 1.63 |
| CC(C)Cc1nc2cc(NS(=O)(=O)N(C)C)cc(C(=O)NCCN3CCOCC3)c2n1C | -12 | 1.7 |
| O=C(c1cccs1)N1CCOC[C@H]1c1ncn(CC(F)(F)F)n1 | 3 | -0.61 |
| COC(=O)c1ncccc1N(C)Cc1cccc(OC)c1 | 10 | -1.38 |
| O=C1[C@@H]2[C@H](Cc3ccccc3)N[C@]3(C(=O)Nc4ccccc43)[C@@H]2C(=O)N1c1ccc(F)cc1 | 13 | -1.68 |
| CCn1cnnc1-c1cccc(NS(=O)(=O)C[C@H]2CCCCO2)c1 | -4 | 0.58 |
| CCCNc1ncc(CN(C)Cc2ccon2)cn1 | 2 | -0.29 |
| CCN1CCN(c2c(CN(CC(C)C)C(=O)Cc3ccc(F)cc3)c(C)nn2-c2cccc(F)c2)CC1 | -1 | 0.12 |
| Nc1nc(N2CCC[C@H](CNC(=O)c3ccc(Cl)cn3)C2)cc2nncn12 | -4 | 0.55 |
| COc1ccc(CNC(=O)[C@@H]2CC(=O)c3cc(Cl)ccc3O2)cc1 | 27 | -3.01 |
| OC12CCCCC1[C@H](c1ccc3c(c1)OCO3)NCC2 (stereo partly drawn) | -1 | 0.08 |
| COc1ccccc1N1CCN(C(=O)c2cc3c(-c4ccc(Cl)cc4)nn(C)c3s2)CC1 | 0 | 0.06 |
| Cc1cc(NC(=O)c2ccn(C)c(=O)c2)ncc1Br | -13 | 2.5 |
| CCOc1ccccc1-c1nccn1CCn1cccn1 | -19 | 1.74 |
| O=C(NC[C@H]1CCN(Cc2c[nH]cn2)C1)c1cccc2c1NCCC2 | -1 | 0.23 |
| COCCCNC(=O)N1CCCCCCn2c(nnc2-c2ccc(F)cc2)CC1 | -10 | 1.38 |
| Cc1ccc(-c2ccc3nc[nH]c(=O)c3c2)o1 | -17 | 2.86 |
| Cc1nc2c3ccccc3nc(N3CCN([C@@H](C)CO)CC3)n2n1 | 2 | -0.39 |
| Nc1[nH]nc(C(=O)N2CCc3[nH]c(-c4ccccc4)nc3C2)c1Cl | 1 | -0.26 |
| CCc1cc(N2CCc3sc(C(N)=O)cc3C2)n2nccc2n1 | 2 | -0.39 |
